Reference: PubChem BioAssay (Tox21)
Where “and” joins values, the source holds several entries; their conditions need not be identical. Identical values can stand only once. Inconclusive results, whose numbers are uncertain, are shown with a selection of clear calls. A potency beside an inconclusive call is a rough fit, not a confirmed value. Calls of active or inactive are those of the source. The call rests on the fitted dose curve; in most records, active means well fitted inhibition curve with a large enough effect in the signal ratio in the repeat runs (not every such curve was filed as active); inconclusive means weak or mixed curves; inactive means flat fitted curve, though single readings scatter; the % refers to the signal ratio.

Biological target: Progesterone receptor (Homo sapiens) (UniProt P06401)
Assay: qHTS assay to identify small molecule antagonists of the progesterone receptor (PR) signaling pathway (AID 1346795)
Conditions: PR-UAS-bla HEK293T, beta-lactamase FRET ratio, 16 h; activity change, negative = inhibition: at 92.4 µM (top of the series) unless noted
Description: National Center for Advancing Translational Sciences [NCATS]
NIH Chemical Genomics Center [NCGC]
U.S. Environmental Protection Agency [EPA]
National Institutes of Environmental Health Sciences [NIEHS]
National Toxicology Program [NTP]
U.S. Food and Drug Administration [FDA]
Progesterone receptor (PR), a nuclear hormone receptor, plays an important role in development, metabolic homeostasis and reproduction. […] Endocrine disrupting chemicals (EDCs) and their interactions with steroid hormone receptors like PR causes disruption of normal endocrine function. To identify the compounds that inhibit PR signaling, a PR-UAS-bla GripTite cell line i.e. PR-UAS-bla HEK293T (Invitrogen, Carlsbad, CA, USA) containing a beta-lactamase reporter gene under the control of an Upstream Activator Sequence (UAS) was used to screen Tox21 10K compound library.
Tox21 Assay Protocol Summary:
PR-UAS-bla HEK293T cells were dispensed at 3,000 cells/4 uL of assay medium containing 2% charcoal stripped FBS per well into black wall/clear-bottom 1536-well plates using a Multidrop Combi (ThermoFisher Scientific, Waltham, MA) dispenser. After the assay plates were incubated at a 37C and 5% CO2 for 6 hr, 23 nL of compounds dissolved in DMSO, positive controls or DMSO only was transferred to the assay plate by a Pintool station (Kalypsys, San Diego, CA), followed by addition of 1 uL (1nM as final concentration) of Promegestone (R5020) in assay medium using a BioRAPTR FRD (Flying Reagent Dispenser, Aurora Discovery, San Diego, CA). The plates were incubated at 37C and 5% CO2 for 16 hr. Then 1 uL of LiveBLAzer B/G FRET substrate was added using a FRD. After the plates were incubated at room temperature for 2 hours, fluorescence intensity was measured by an Envision plate reader (PerkinElmer, Shelton, CT).
On the % scale 0 is the no-effect control and ±100 the full control effect; potency means the concentration at half of the fitted maximal effect; tags describe the fitted curve by direction and shape.

Sequence of UniProt P06401 (P06401 whole entry, looked up): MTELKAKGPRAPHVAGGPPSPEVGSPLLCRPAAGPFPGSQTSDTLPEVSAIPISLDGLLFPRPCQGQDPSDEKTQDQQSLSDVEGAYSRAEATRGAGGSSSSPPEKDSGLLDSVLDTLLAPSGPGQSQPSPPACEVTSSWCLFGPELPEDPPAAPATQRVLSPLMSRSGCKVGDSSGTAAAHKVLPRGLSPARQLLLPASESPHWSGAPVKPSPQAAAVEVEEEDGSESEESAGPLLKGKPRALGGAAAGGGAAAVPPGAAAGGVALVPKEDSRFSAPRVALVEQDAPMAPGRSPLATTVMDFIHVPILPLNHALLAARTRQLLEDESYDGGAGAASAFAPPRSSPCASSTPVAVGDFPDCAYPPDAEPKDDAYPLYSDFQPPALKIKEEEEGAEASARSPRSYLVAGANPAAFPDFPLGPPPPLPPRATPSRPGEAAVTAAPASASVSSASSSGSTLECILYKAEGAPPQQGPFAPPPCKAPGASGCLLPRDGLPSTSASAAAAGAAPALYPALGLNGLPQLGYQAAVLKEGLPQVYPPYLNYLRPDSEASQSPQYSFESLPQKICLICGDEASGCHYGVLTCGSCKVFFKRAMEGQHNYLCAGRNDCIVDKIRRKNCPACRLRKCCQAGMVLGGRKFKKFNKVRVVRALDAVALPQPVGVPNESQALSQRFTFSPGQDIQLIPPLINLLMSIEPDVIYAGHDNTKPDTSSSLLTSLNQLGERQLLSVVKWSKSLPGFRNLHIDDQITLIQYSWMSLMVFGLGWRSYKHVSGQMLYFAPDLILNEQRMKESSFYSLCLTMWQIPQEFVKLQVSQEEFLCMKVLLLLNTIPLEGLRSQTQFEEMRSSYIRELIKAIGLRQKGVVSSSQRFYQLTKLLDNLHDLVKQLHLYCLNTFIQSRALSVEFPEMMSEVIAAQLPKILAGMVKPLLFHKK

Row | SMILES | Potency | activity change, negative = inhibition
1 | CCN(CC)Cc1nccn1-c1ccc([N+](=O)[O-])cc1C(=O)c1ccccc1Cl | inconclusive: 29.8 µM | 
2 | O=C(O)CCl | inactive | 
3 | CN(C)C1CCCCC1 |  | inactive: 11.9%
4 | O=C(N/N=C/c1ccc([N+](=O)[O-])o1)c1cc([N+](=O)[O-])cc([N+](=O)[O-])c1O |  | inactive: 0.399% [at 42.5 µM]
5 | CCOP(=S)(S)OCC |  | inconclusive: 8.17%
6 | COC1=CC(=O)O[C@@H](/C=C/c2ccccc2)C1 |  | inconclusive: -36.2%
7 | CCCCn1cc[n+](C)c1C |  | inconclusive: 1.69%
8 | CC[C@H](O)C(C[C@H](C)N(C)C)(c1ccccc1)c1ccccc1 |  | inconclusive: -22.4%
9 | OCc1ccco1 | inconclusive: 2.81 µM [rising, full curve, poor fit] | 
10 | CC(=[OH+])/C=C(/C)[O-].CC(=[OH+])/C=C(\C)[O-].CC(=[OH+])/C=C(\C)[O-].[Al] |  | inconclusive: 8.53%
11 | CC(C1CC1)C(O)(Cn1cncn1)c1ccc(Cl)cc1 (stereo not given) | active: 48.3 µM | 
12 | CC(C)Br | inconclusive: 24.4 µM [rising, partial curve, poor fit] | 
13 | CCC(=O)C(CCN(C)C)(c1ccccc1)c1ccccc1 |  | inactive: -8.62% [at 42.5 µM]
14 | N#Cc1ccccn1 | inactive | 
15 | CSC(C)(C)/C=N/O |  | inactive: 4.79%
16 | CCCCc1c(C)nc(NCC)nc1OS(=O)(=O)N(C)C | active: 27.3 µM | 
17 | N[C@@H](Cc1ccc(Oc2cc(I)c(O)c(I)c2)c(I)c1)C(=O)O | inconclusive: 33.5 µM [falling, single point] | 
18 | CC(CCc1ccccc1)NC(C)C(O)c1ccc(O)cc1 (stereo not given) |  | inconclusive: -3.98% [at 42.5 µM]
19 | OCC(Cl)CCl (stereo not given) |  | inconclusive: -2.41%
20 | CCCCOCCOC(C)=O | inactive | 

Row | SMILES | Potency | activity change, negative = inhibition
21 | CC(C)CC#N |  | inactive: 8.6%
22 | Cc1ccc2nc3sc(=O)sc3nc2c1 |  | inconclusive: 10.3% [at 18.9 µM]
23 | CCCCCCCCSC(=O)Oc1cc(Cl)nnc1-c1ccccc1 | inconclusive: 68.6 µM | 
24 | Oc1ccc(Cl)cc1Cl | inactive | 
25 | O=S(=O)(c1ccc(O)cc1)c1ccc(O)cc1 | inactive | 
26 | CC(C)[C@]12CC(=O)[C@H](C)[C@H]1C2 | inconclusive: 76.6 µM [rising, partial curve, poor fit] | 
27 | Nc1cc(Cl)ccc1O |  | inconclusive: -37.4%
28 | CCOP(=S)(OCC)SCSC(C)(C)C |  | inconclusive: -43.2% and inconclusive: -54.3%
29 | CC(=O)c1ccc(-c2ccccc2)cc1 | inconclusive: 30.6 µM | 
30 | CCC1(CC)C(=O)C=CNC1=O |  | inactive: 3.86% [at 42.5 µM]
31 | [O]=[Cd] |  | inactive: 0.85%
32 | C1CC2OC2CC1C1CO1 (stereo not given) |  | inconclusive: 2.13%
33 | CC[N+](=O)[O-] |  | inconclusive: 7.56%
34 | CCCC[N+]1(C)CCCC1 (tested in a mixture with another compound) |  | inactive: -0.547%
35 | CCNc1nc(NC(C)C(C)C)nc(SC)n1 (stereo not given) |  | inconclusive: -21%
36 | O=C(Nc1ccccc1)N(Cc1ccc(Cl)cc1)C1CCCC1 | inconclusive: 15.4 µM [rising, full curve] | 
37 | ClC(Br)Br |  | inactive: 2.51%
38 | CCOP(=S)(OCC)SCCS(=O)(=O)CC | active: 48.6 µM | 
39 | Clc1cccc(N2CCNCC2)c1 |  | inactive: 8.66% [at 42.5 µM]
40 | Fc1cc(Br)ccc1CBr |  | inactive: 1.09% [at 42.5 µM]
